The supplement of paper PMC4967469
Lines with a small IC50 respond at low doses; where the fit passes the top or lowest dose, that dose stands as a limit. The AUC spans the tested range (256-fold, ending at the top dose) of the same fit: 1 means no effect, lower means more sensitive. A top dose marked as inferred was calculated from the reported fits.

Tests used:
Assay in all cases: Viability of human cancer cell lines after 72 h of drug (GDSC screen)
CCT007093 = compound: O=C1/C(=C/c2cccs2)CC/C1=C\c1cccs1 [CCT007093]; details: top dose 6.6 µM; top dose inferred
Protocol: (§1)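 Human cancer cell lines in 384-well plates, medium with 10% serum, drug for 72 h over a 256-fold dose range (nine 2-fold or five 4-fold steps up to the top dose). Adherent lines were fixed and stained with the nucleic acid dye Syto60, suspension lines read with resazurin; signal relative to control wells, capped at 0 and 100%. One two-parameter sigmoid per drug and line, fitted in a mixed model over all curves with the slope shared within a line.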

BAY 61-3606 = compound: COc1ccc(-c2cc3nccn3c(Nc3ncccc3C(N)=O)n2)cc1OC [BAY 61-3606]; details: top dose 8 µM; top dose inferred
Protocol: as §1

KIN001-266 = compound: CCN1CCC(n2cc(CNc3cc(Cl)c4ncc(C#N)c(Nc5ccc(F)c(Cl)c5)c4c3)nn2)CC1 [KIN001-266]; details: top dose 20 µM; top dose inferred
Protocol: as §1

QL-XII-47 = compound: C=CC(=O)N1CCc2ccc(-n3c(=O)ccc4cnc5ccc(-c6cnn(C)c6)cc5c43)cc21 [QL-XII-47]; details: top dose 10.24 µM; top dose inferred
Protocol: as §1

| Cell Line | AUC (CCT007093) | IC50 (CCT007093) [µM] | AUC (BAY 61-3606) | IC50 (BAY 61-3606) [µM] | AUC (KIN001-266) | IC50 (KIN001-266) [µM] | AUC (QL-XII-47) | IC50 (QL-XII-47) [µM] |
| --- | --- | --- | --- | --- | --- | --- | --- | --- |
| NCI-H2081 (small cell lung carcinoma, suspension) | 0.988 | > 6.6 | 0.919 | > 8 | 0.888 | > 20 | 0.439 | 0.431 |
| CAL-12T (non-small cell lung carcinoma, adherent) | 0.97 | > 6.6 | 0.511 | 0.537 | 0.837 | 15.7 | 0.349 | 0.232 |
| MSTO-211H (mesothelioma, adherent) | 0.991 | > 6.6 | 0.991 | > 8 | 0.991 | > 20 | 0.988 | > 10.2 |
| OVCAR-3 (ovary, adherent) | 0.983 | > 6.6 | 0.919 | > 8 | 0.981 | > 20 | 0.986 | > 10.2 |
| A204 (rhabdomyosarcoma, adherent) | 0.976 | > 6.6 | 0.813 | 5.97 | 0.861 | > 20 | 0.576 | 1.1 |
| MDST8 (large intestine, adherent) | 0.89 | > 6.6 | 0.95 | > 8 | 0.877 | 19.7 | 0.883 | > 10.2 |
| NCI-H1092 (small cell lung carcinoma, suspension) | 0.989 | > 6.6 | 0.882 | > 8 | 0.921 | > 20 | 0.584 | 1.09 |
| 639-V (bladder, adherent) | 0.985 | > 6.6 | 0.713 | 1.79 | 0.927 | > 20 | 0.885 | 8.3 |
| ES8 (Ewing sarcoma, adherent) | 0.963 | > 6.6 | 0.831 | 4.55 | 0.668 | 3.52 | 0.682 | 1.98 |
| C-33-A (cervix, adherent) | 0.978 | > 6.6 | 0.674 | 1.54 | 0.722 | 5.35 | 0.678 | 2.01 |
| NCI-H69 (small cell lung carcinoma, suspension) | 0.985 | > 6.6 | 0.88 | > 8 | 0.985 | > 20 | 0.755 | 3.83 |
| ARH-77 (myeloma, suspension) | 0.983 | > 6.6 | 0.766 | 2.86 | 0.88 | 19.3 | 0.589 | 1.11 |
| TE-10 (oesophagus, adherent) | 0.986 | > 6.6 | 0.68 | 1.58 | 0.893 | > 20 | 0.663 | 1.79 |
| DU-4475 (breast, suspension) | 0.987 | > 6.6 | 0.744 | 2.12 | 0.882 | 14.5 | 0.595 | 1.11 |
| TGBC11TKB (stomach, adherent) | 0.979 | > 6.6 | 0.852 | 5.08 | 0.972 | > 20 | 0.932 | > 10.2 |
| SK-MEL-24 (melanoma, adherent) | 0.968 | > 6.6 | 0.977 | > 8 | 0.832 | 16.8 | 0.983 | > 10.2 |
| MIA-PaCa-2 (pancreas, adherent) | 0.983 | > 6.6 | 0.843 | 6.53 | 0.969 | > 20 | 0.981 | > 10.2 |
| MKN1 (stomach, adherent) | 0.971 | > 6.6 | 0.829 | 5.35 | 0.955 | > 20 | 0.786 | 4.69 |
| COLO-800 (melanoma, adherent) | 0.985 | > 6.6 | 0.973 | > 8 | 0.984 | > 20 | 0.844 | 7 |
| MFE-280 (endometrium, adherent) | 0.982 | > 6.6 | 0.981 | > 8 | 0.874 | > 20 | 0.765 | 4.75 |

| Cell Line | AUC (CCT007093) | IC50 (CCT007093) [µM] | AUC (BAY 61-3606) | IC50 (BAY 61-3606) [µM] | AUC (KIN001-266) | IC50 (KIN001-266) [µM] | AUC (QL-XII-47) | IC50 (QL-XII-47) [µM] |
| --- | --- | --- | --- | --- | --- | --- | --- | --- |
| YKG-1 (glioma, adherent) | 0.969 | > 6.6 | 0.498 | 0.493 | 0.872 | 19.5 | 0.389 | 0.315 |
| DJM-1 (skin, adherent) | 0.986 | > 6.6 | 0.989 | > 8 | 0.938 | > 20 | 0.756 | 3.48 |
| TCCSUP (bladder, adherent) | 0.967 | > 6.6 | 0.921 | > 8 | 0.867 | > 20 | 0.779 | 4.8 |
| SK-MEL-28 (melanoma, adherent) | 0.966 | > 6.6 | 0.975 | > 8 | 0.79 | 8.73 | 0.748 | 3.25 |
| SW48 (large intestine, adherent) | 0.986 | > 6.6 | 0.834 | 5.17 | 0.873 | 19.1 | 0.924 | > 10.2 |
| HN (head and neck, adherent) | 0.982 | > 6.6 | 0.969 | > 8 | 0.988 | > 20 | 0.989 | > 10.2 |
| CHSA0108 (chondrosarcoma, adherent) | 0.984 | > 6.6 | 0.953 | > 8 | 0.579 | 2.13 | 0.898 | > 10.2 |
| HCC1937 (breast, adherent) | 0.981 | > 6.6 | 0.955 | > 8 | 0.824 | 14.3 | 0.664 | 1.98 |
| MEL-JUSO (melanoma, adherent) | 0.931 | > 6.6 | 0.752 | 2.92 | 0.843 | 16.7 | 0.609 | 1.32 |
| CFPAC-1 (pancreas, adherent) | 0.981 | > 6.6 | 0.854 | 7.83 | 0.878 | > 20 | 0.749 | 3.75 |
| MDA-MB-231 (breast, adherent) | 0.982 | > 6.6 | 0.986 | > 8 | 0.972 | > 20 | 0.829 | 6.93 |
| NB-4 (acute myeloid leukaemia, suspension) | 0.984 | > 6.6 | 0.796 | 3 | 0.761 | 5.94 | 0.612 | 1.23 |
| AN3-CA (endometrium, adherent) | 0.976 | > 6.6 | 0.799 | 4.27 | 0.857 | 18.8 | 0.743 | 3.42 |
| NCI-H446 (small cell lung carcinoma, semi-adherent) | 0.985 | > 6.6 | 0.847 | 6.52 | 0.855 | 17.8 | 0.681 | 2.15 |
| KU812 (chronic myeloid leukaemia, suspension) | 0.97 | > 6.6 | 0.763 | 2.65 | 0.861 | 14.6 | 0.421 | 0.398 |
| TUR (B-cell lymphoma, suspension) | 0.971 | > 6.6 | 0.779 | 3 | 0.866 | 15.6 | 0.79 | 4.18 |
| NCI-H2347 (lung adenocarcinoma, adherent) | 0.977 | > 6.6 | 0.819 | 5.88 | 0.873 | > 20 | 0.845 | 9.93 |
| HEC-1 (endometrium, adherent) | 0.973 | > 6.6 | 0.855 | 6.03 | 0.921 | > 20 | 0.931 | > 10.2 |
| BFTC-905 (bladder, adherent) | 0.99 | > 6.6 | 0.755 | 2.37 | 0.889 | 17.2 | 0.564 | 0.931 |
| SW1783 (glioma, adherent) | 0.979 | > 6.6 | 0.928 | > 8 | 0.885 | 18.1 | 0.93 | > 10.2 |

| Cell Line | AUC (CCT007093) | IC50 (CCT007093) [µM] | AUC (BAY 61-3606) | IC50 (BAY 61-3606) [µM] | AUC (KIN001-266) | IC50 (KIN001-266) [µM] | AUC (QL-XII-47) | IC50 (QL-XII-47) [µM] |
| --- | --- | --- | --- | --- | --- | --- | --- | --- |
| A2780 (ovary, semi-adherent) | 0.951 | > 6.6 | 0.686 | 1.69 | 0.817 | 11.7 | 0.413 | 0.365 |
| JHH-6 (liver, adherent) | 0.986 | > 6.6 | 0.834 | 5.31 | 0.873 | 19.8 | 0.986 | > 10.2 |
| PC-14 (lung adenocarcinoma, adherent) | 0.987 | > 6.6 | 0.936 | > 8 | 0.811 | 9.24 | 0.808 | 4.63 |
| NCI-H747 (large intestine, adherent) | 0.976 | > 6.6 | 0.884 | > 8 | 0.802 | 12.5 | 0.413 | 0.351 |
| SK-MES-1 (lung squamous cell carcinoma, adherent) | 0.984 | > 6.6 | 0.7 | 1.93 | 0.84 | 15.6 | 0.815 | 6.25 |
| P31-FUJ (acute myeloid leukaemia, suspension) | 0.994 | > 6.6 | 0.993 | > 8 | 0.903 | 15.1 | 0.923 | 9.38 |
| A498 (kidney, adherent) | 0.875 | > 6.6 | 0.977 | > 8 | 0.965 | > 20 | 0.829 | > 10.2 |
| OVKATE (ovary, adherent) | 0.979 | > 6.6 | 0.972 | > 8 | 0.873 | > 20 | 0.88 | > 10.2 |
| PFSK-1 (medulloblastoma, adherent) | 0.986 | > 6.6 | 0.824 | 5.17 | 0.945 | > 20 | 0.802 | 5.39 |
| SUP-HD1 (Hodgkin lymphoma, suspension) | 0.983 | > 6.6 | 0.635 | 1.15 | 0.784 | 8.08 | 0.545 | 0.845 |
| P12-ICHIKAWA (T-cell lymphoblastic leukaemia, suspension) | 0.991 | > 6.6 | 0.826 | 3.44 | 0.893 | 14.3 | 0.507 | 0.664 |
| PCI-4B (head and neck, adherent) | 0.948 | > 6.6 | 0.765 | 2.78 | 0.877 | 18.4 | 0.51 | 0.68 |
| NCI-H1755 (lung adenocarcinoma, adherent) | 0.919 | > 6.6 | 0.898 | > 8 | 0.603 | 2.51 | 0.892 | > 10.2 |
| LS-123 (large intestine, adherent) | 0.963 | > 6.6 | 0.868 | > 8 | 0.834 | 19.6 | 0.734 | 3.79 |
| TT (thyroid, adherent) | 0.983 | > 6.6 | 0.949 | > 8 | 0.965 | > 20 | 0.982 | > 10.2 |
| NCI-H2444 (non-small cell lung carcinoma, adherent) | 0.983 | > 6.6 | 0.988 | > 8 | 0.967 | > 20 | 0.953 | > 10.2 |
| NCI-H720 (lung carcinoid, suspension) | 0.992 | > 6.6 | 0.992 | > 8 | 0.963 | > 20 | 0.992 | > 10.2 |
| NCI-H1944 (lung adenocarcinoma, adherent) | 0.978 | > 6.6 | 0.671 | 1.55 | 0.849 | 16.5 | 0.576 | 1.05 |
| PF-382 (T-cell lymphoblastic leukaemia, suspension) | 0.991 | > 6.6 | 0.758 | 2.47 | 0.854 | 12.8 | 0.442 | 0.454 |
| CL-11 (large intestine, adherent) | 0.982 | > 6.6 | 0.987 | > 8 | 0.904 | > 20 | 0.968 | > 10.2 |
